Laboratory results taken from PubChem BioAssay AID1259407 (Chemical Carcinogenesis Research Information System (CCRIS), 2018).
“Also recorded” adds a separate entry of the source. The source holds more than one record for some entries. The other results are left out here. The rule behind the calls is not given here. There may be further records. Results that share an entry do not match, cause unknown; they may come from other doses, times, organisms or constructs than stated. Brackets tell where a record comes from. Letters hold for one entry only. Counts like (3×) give the number of equal values in this list.

Test system: CCRIS mutagenicity, Ames/micronucleus/aberration tests
Test: CCRIS mutagenicity studies
[1] = Test System: AMES SALMONELLA TYPHIMURIUM, Strain/Indicator: TA98, Metabolic Activation: NONE, Method: STANDARD PLATE
[2] = Test System: Ames Salmonella typhimurium, Strain/Indicator: TA100, Metabolic Activation: None, Method: Preincubation
[3] = Test System: AMES SALMONELLA TYPHIMURIUM, Strain/Indicator: TA100, Metabolic Activation: NONE, Method: STANDARD PLATE
[4] = Test System: AMES SALMONELLA TYPHIMURIUM, Strain/Indicator: TA1535, Metabolic Activation: NONE, Method: STANDARD PLATE
[5] = Test System: AMES SALMONELLA TYPHIMURIUM, Strain/Indicator: TA100, Metabolic Activation: NONE, Method: PREINCUBATION

Cc1c2ccncc2c(C)c2c1[nH]c1ccccc12 was tested, and the mutagenic call [1] was “active; positive [study A] and inactive; negative [study B]”.
With [O]=[Cr](=[O])([OH])[O][Cr](=[O])(=[O])[OH] the mutagenic call (End Point: In vitro micronucleus, Test System: Human lymphocytes, Metabolic Activation: None) was “active; positive. ameliorated by addition of curcumin; also recorded: inactive; negative” and the mutagenic call (Test System: AMES SALMONELLA TYPHIMURIUM, Strain/Indicator: TA102, Metabolic Activation: NONE, Method: PREINCUBATION) was “inactive; negative and active; positive”.
In the case of Cc1cc(O)c2c(c1)C(=O)c1cc(O)cc(O)c1C2=O, the mutagenic call (Test System: AMES SALMONELLA TYPHIMURIUM, Strain/Indicator: TA102, Metabolic Activation: RAT, LIVER, S-9, AROCLOR 1254, Method: STANDARD PLATE) is reported as “inactive; negative [study A] and active; positive [study B]”.
With CC1(C)CC2=C(C=O)[C@@]3(C=O)C[C@@]3(C)[C@@H](O)[C@@H]2C1 the mutagenic call (Test System: AMES SALMONELLA TYPHIMURIUM, Strain/Indicator: TA2637, Metabolic Activation: NONE, Method: STANDARD PLATE) was “active; positive [study A] and inactive; negative [study B]”.
In the case of CCCl, the mutagenic call (Test System: AMES SALMONELLA TYPHIMURIUM, Strain/Indicator: TA100, Metabolic Activation: RAT, LIVER, S-9, AROCLOR 1254 (30%), Method: DESICCATOR) is reported as “active; positive and inactive; negative”.
N#CC(Br)Br was tested, and the mutagenic call [2] was “active; positive (weak response; did not achieve doubling effect); also recorded: inactive; negative (2×)”, the mutagenic call (Test System: Ames Salmonella typhimurium, Strain/Indicator: TA1535, Metabolic Activation: Hamster, Liver, S-9, Aroclor 1254 (10%), Method: Preincubation) was “active; positive and inactive; negative” and the mutagenic call (Test System: Ames Salmonella typhimurium, Strain/Indicator: TA1535, Metabolic Activation: Rat, Liver, S-9, Aroclor 1254 (10%), Method: Preincubation) was “active; positive [study A] and inactive; negative [study A] and active; positive (weak response) [study B]”. The mutagenic call (Test System: Ames Salmonella typhimurium, Strain/Indicator: TA1537, Metabolic Activation: Hamster, Liver, S-9, Aroclor 1254 (10%), Method: Preincubation) was “active; positive (weak response) and inactive; negative (2×)”.
For N[C@@H]1CCCCN1.[Cl][Pt][Cl], the mutagenic call (Test System: AMES SALMONELLA TYPHIMURIUM, Strain/Indicator: TA98, Metabolic Activation: RAT, LIVER, S-9, AROCLOR 1254, Method: PREINCUBATION) was “active; positive and inactive; negative”.
In the case of NCCS, the mutagenic call (Test System: E. coli, Strain/Indicator: WP2uvrA/pKM101, Metabolic Activation: None, Method: Preincubation) is reported as “inactive; negative and active; positive”.
For CC(=O)Nc1cccc2c1-c1ccccc1C2, the mutagenic call (Test System: MOUSE LYMPHOMA, Strain/Indicator: L5178Y (TK+/TK-), Metabolic Activation: RAT, LIVER, S-9, AROCLOR 1254, Method: SUSPENSION/PLATE) was “inactive; negative [study A] and active; positive [study B]” and the mutagenic call (Test System: MOUSE LYMPHOMA, Strain/Indicator: L5178Y (TK+/TK-), Metabolic Activation: RAT, LIVER, S-9, Method: SUSPENSION/PLATE) was “inactive; negative [study A] and active; positive [study B]”.
In the case of CN1CCC[C@H]1c1cccnc1, the mutagenic call (End Point: In vivo micronucleus, Test System: Bone marrow polychromatic erythrocytes, Species: Mouse, Strain/Sex: Swiss/Male, Route: Oral) is reported as “inactive; negative and active; positive”.
With C[Si](C)(Cl)Cl the mutagenic call (Test System: MOUSE LYMPHOMA, Strain/Indicator: L5178Y (TK+/TK-), Metabolic Activation: NONE, Method: SUSPENSION/PLATE) was “inactive; negative [study A]; also recorded: inactive; negative. reealuation of results: negative [study B]”.
C1=C\CC/C=C\CC/1.Nc1ccccc1.[Cl-].[Rh] was tested, and the mutagenic call (Test System: AMES SALMONELLA TYPHIMURIUM, Strain/Indicator: TA92, Metabolic Activation: NONE, Method: STANDARD PLATE) was “active; positive and inactive; negative”, the mutagenic call [1] was “active; positive and inactive; negative” and the mutagenic call [3] was “active; positive and inactive; negative”.
O=C=Nc1ccc(Cc2ccc(N=C=O)cc2)cc1 was tested, and the mutagenic call (Test System: AMES SALMONELLA TYPHIMURIUM, Strain/Indicator: TA98, Metabolic Activation: RAT, LIVER, S-9, AROCLOR 1254 (30%), Method: STANDARD PLATE) was “active; positive [sample A] and inactive; negative [sample A] and active; positive [sample B] and inactive; negative [sample B]” and the mutagenic call (Test System: AMES SALMONELLA TYPHIMURIUM, Strain/Indicator: TA100, Metabolic Activation: RAT, LIVER, S-9, AROCLOR 1254 (30%), Method: STANDARD PLATE) was “active; positive [sample A] and inactive; negative [sample A] and active; positive [sample B] and inactive; negative [sample B]”.
With C[C@H](CCC(=O)O)[C@H]1CC[C@H]2[C@@H]3[C@H](O)C[C@@H]4C[C@H](O)CC[C@]4(C)[C@H]3CC[C@]12C the mutagenic call (Test System: AMES SALMONELLA TYPHIMURIUM, Strain/Indicator: TA98, Metabolic Activation: NONE, Method: FLUCTUATION TEST) was “inactive; negative [study A] and active; positive [study B]” and the mutagenic call (Test System: AMES SALMONELLA TYPHIMURIUM, Strain/Indicator: TA100, Metabolic Activation: NONE, Method: FLUCTUATION TEST) was “inactive; negative [study A] and active; positive [study B]”.
For ClC(Cl)Cl, the mutagenic call (Test System: AMES SALMONELLA TYPHIMURIUM, Strain/Indicator: TA1535 (GST+), Metabolic Activation: NONE, Method: STANDARD PLATE) was “active; positive and inactive; negative” and the mutagenic call [4] was “inactive; negative [study A] and active; positive [study B]”.
With CCOC(=O)CBr the mutagenic call (End Point: IN VITRO CHROMOSOMAL ABERRATIONS, Test System: CHL CELLS, Metabolic Activation: NONE) was “inactive; negative; test material toxic at 0.0004 mg/ml; metaphase cell division not obse; also recorded: inactive; negative; authors report equivocal results for structural changes at highest dos”.
For O=C(O)C(Cl)(Cl)Cl, the mutagenic call (End Point: IN VITRO CHROMOSOMAL ABERRATIONS, Test System: HUMAN PERIPHERAL LYMPHOCYTES, Metabolic Activation: NONE) was “active; positive; authors report that chromosomal damage is a result of ph changes induc; also recorded: inactive; negative” and the mutagenic call (End Point: IN VITRO CHROMOSOMAL ABERRATIONS, Test System: HUMAN PERIPHERAL LYMPHOCYTES, Metabolic Activation: RAT, LIVER, S-9, AROCLOR 1254) was “active; positive; authors report that chromosomal damage is a result of ph changes induc; also recorded: inactive; negative”.
In the case of OCC(O)CCl (configuration not stated), the mutagenic call (Test System: AMES SALMONELLA TYPHIMURIUM, Strain/Indicator: TA98, Metabolic Activation: NONE, Method: PREINCUBATION) is reported as “inactive; negative [study A] and active; positive [study B]”.
In the case of CCN(CC)N=O, the mutagenic call [5] is reported as “inactive; negative [study A] and active; positive [study B]”, the mutagenic call (Test System: E. COLI, Strain/Indicator: WP2 UVRA, Metabolic Activation: MOUSE, LIVER, S-9, AROCLOR 1254, Method: PREINCUBATION) is reported as “active; positive and inactive; negative” and the mutagenic call (Test System: E. COLI, Strain/Indicator: WP2 UVRA, Metabolic Activation: MOUSE, LIVER, S-9, Method: PREINCUBATION) is reported as “active; positive and inactive; negative”. The mutagenic call (Test System: E. COLI, Strain/Indicator: WP2 UVRA, Metabolic Activation: NONE, Method: PREINCUBATION) was “active; positive and inactive; negative”, the mutagenic call (Test System: E. COLI, Strain/Indicator: WP2 UVRA, Metabolic Activation: RAT, LIVER, S-9, AROCLOR 1254, Method: PREINCUBATION) was “active; positive and inactive; negative” and the mutagenic call (Test System: E. COLI, Strain/Indicator: WP2 UVRA, Metabolic Activation: RAT, LIVER, S-9, AROCLOR 1254, Method: STANDARD PLATE) was “active; positive and inactive; negative”.
With ONc1ncnc2nc[nH]c12 the mutagenic call [3] was “inactive; negative [study A] and active; positive [study B] and active; positive [study C]”.
For ClCc1ccc(Cl)cc1, the mutagenic call (End Point: In vitro chromosomal aberrations, Test System: Chinese hamster lung (CHL/IU) cells, Metabolic Activation: None) was “active; positive (structural changes and ploidy). toxicity at 0.040 and 0.048 mg/ml; also recorded: active; positive (structural changes and ploidy). toxicity at 0.030 mg/ml. weak response; also recorded: active; positive (structural changes)”.
With CNC(=O)/C=C(\C)OP(=O)(OC)OC the mutagenic call [4] was “inactive; negative [study A] and active; positive [study B]”.
For ClCCCl, the mutagenic call (Test System: Ames Salmonella typhimurium, Strain/Indicator: TA1535, Metabolic Activation: None, Method: Preincubation) was “inactive; negative and active; positive (2×)”.
With C/C=C/C=C/C=O the mutagenic call [5] was “active; positive [sample A, study A] and inactive; negative [sample B, study B]” and the mutagenic call (Test System: AMES SALMONELLA TYPHIMURIUM, Strain/Indicator: TA100, Metabolic Activation: RAT LIVER S-9, AROCLOR 1254 (30%), Method: PREINCUBATION) was “inactive; negative and active; positive”.
With Nc1cccc(N)c1 the mutagenic call (End Point: IN VITRO CHROMOSOMAL ABERRATIONS, Test System: CHINESE HAMSTER LUNG CELLS (CHL), Metabolic Activation: NONE) was “active; positive (structural changes); also recorded: inactive; negative; authors describe the results at the highest dose as equivocal”, the mutagenic call [1] was “inactive; negative [study A] and inactive; negative [study B] and active; positive [study C]” and the mutagenic call (Test System: AMES SALMONELLA TYPHIMURIUM, Strain/Indicator: TA100, Metabolic Activation: RAT, LIVER, S-9, AROCLOR 1254, Method: STANDARD PLATE) was “inactive; negative [study A] and active; positive [study B]”.
For Nc1cc2nc3ccccc3nc2cc1O, the mutagenic call (Test System: AMES SALMONELLA TYPHIMURIUM, Strain/Indicator: YG1024, Metabolic Activation: NONE, Method: PREINCUBATION) was “active; positive and inactive; negative” and the mutagenic call (Test System: AMES SALMONELLA TYPHIMURIUM, Strain/Indicator: YG1029, Metabolic Activation: NONE, Method: PREINCUBATION) was “active; positive and inactive; negative”.
In the case of O=C(O)C(Cl)Br (configuration not stated), the mutagenic call [2] is reported as “inactive; negative [study A] and active; positive [study B]”.
